Results reported in PubChem BioAssay AID1508642 (National Center for Advancing Translational Sciences (NCATS), 2021).
Screen size: about 43,000 compounds; about 200 (0.47%) were called active. Roughly 12% stayed inconclusive and do not appear here. Calls come from the whole dose curve; as a rule, active = well fitted cell-killing curve with a large enough effect; inconclusive = small, poorly fitted or top-dose-only effect, or effect the other way; inactive = flat fitted curve, though single readings scatter. The list shows a part of the results.

experiment: Cell viability qHTS assay in S16 Pmp22-F2sN cells; conditions: S16 Pmp22-F2sN Schwann cells (luciferase reporters placed in the Pmp22 gene) viability, CellTiter-Glo, 24 h; series mostly up to 57.5 µM; activity change, negative = cytotoxicity: at the top concentration; note: nearly all actives have a fitted effect of over 65% in size
Outline: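 Luminescence from CellTiter-Glo, read by CCD camera after a 15 min room-temperature incubation, served as the viability signal. Reporter Schwann cells (S16 Pmp22-F2sN) had been treated with pin-transferred compounds for 24 h at 37C.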
% is set by controls: 0 for no effect and ±100 for the full control effect.

SMILES | activity change, negative = cytotoxicity
O=C(NCc1ccccc1Cl)c1nnc(Cc2cccc(F)c2)o1 | inactive: 6.62%
Cc1ccc2oc(-c3ccc(C)c(NC(=O)/C=C/c4ccco4)c3)nc2c1 | inactive: 4.5%
Cc1ccc(-c2nc(CSc3nnc(C)n4c3cc3occc34)c(C)o2)cc1 | inactive: 6.43%
Cc1ccc(NC(=O)CN(Cc2ccccc2)S(=O)(=O)c2ccc3nc(C)sc3c2)c(C)c1 | inactive: 9.72%
CCCCSc1nnc2c(n1)OC(c1ccc(Br)s1)Nc1ccccc1-2 (configuration not stated) | inactive: -9.31%
Cc1cc(N2CCC(C)CC2)nc2ccc(NC(=O)Cc3ccccc3Br)cc12 | inactive: 24.9%
CCOc1ccc(-c2nc(-c3ccccc3)c(-c3ccccc3)[nH]2)cc1OCC | inactive: -8.14%
CN(C)c1ccc(CNC(=O)CCCN2C(=O)c3cccnc3Oc3ccc(Cl)cc32)cc1 | inactive: 5.45%
COc1ccc(CNC(=O)c2c(O)nc3c(C)cccn3c2=O)cc1 | inactive: -14.2%
CCCCOC(=O)c1ccc(-n2nnc3c(sc4nc(C)cc(C)c43)c2=O)cc1 | inactive: 17.4%
CCc1ccc(C2CC(=O)Nc3c2c(=O)n(C)c2ncnn32)cc1 (configuration not stated) | inactive: -3.56%
COc1ccc(C(=O)c2cn(CC(=O)Nc3cc(C)ccc3C)c3nc(C)ccc3c2=O)cc1 | inactive: -0.858%
CC(C)Oc1ccc(CNC(=O)C2=Cc3ccccc3OC2)cc1 | inactive: 3.93%
CCOC(=O)N[C@H](Cc1c[nH]c2ccccc12)C(=O)Nc1cccc(Cl)c1 | inactive: -0.604%
NC(=O)C1CCN(c2csc3ccc(F)cc3c2=O)CC1 | inactive: -5.72%
COc1ccc(N2CCN(C(CNC(=O)c3ccc(OC)c(OC)c3)c3cccnc3)CC2)cc1 (configuration not stated) | inactive: 3.28%
CCc1ccc(CNC(=O)C2CCN(c3nn4cc(-c5ccc(OC)cc5)nc4s3)CC2)cc1 | inactive: 7.23%
COc1ccc(C2=NC(c3ccccc3)=Nc3ccc(C)cc3N2)cc1 | inactive: -14.6%
CCC(C)NC(=O)c1c2c(nc3ccccc13)C(=O)N(C1CCCCC1)C2 (configuration not stated) | inactive: 16.9%
CCOC(=O)c1cc(S(=O)(=O)Nc2ccccc2)[nH]n1 | inactive: 3.57%
O=C(CSc1n[nH]c(-c2ccc(F)cc2)n1)N1CCN(c2ccc(F)cc2)CC1 | inactive: -0.308%

SMILES | activity change, negative = cytotoxicity
CN1CCN(C(=O)c2ccc3c(c2)N(Cc2ccc(F)cc2)C(=O)c2ccccc2S3(=O)=O)CC1 | inactive: -3.81%
COc1ccc(NC(=O)CSc2nnc(-c3ccncc3)n2-c2ccccc2)cc1 | inactive: -1.73%
CCn1c(SCC(=O)Nc2cc(C)ccc2F)nnc1-c1ccccc1O | inactive: 6.11%
COc1ccc(N2CC(NC(=O)C3CCCCC3)CC2=O)cc1 (configuration not stated) | inactive: 19.5%
CCN(c1ccc(OC)cc1)S(=O)(=O)c1ccc2[nH]c3c(c2c1)CCCCC3 | inactive: -14%
NC(=O)c1cc(S(=O)(=O)NCc2cccc(Br)c2)cs1 | inactive: 9.71%
COC(=O)c1ccc(NC(=O)Cn2c(=O)oc3ccccc32)cc1 | inactive: 7.52%
Cc1ccc(CNC(=O)c2ccc3c(c2)CCN3S(=O)(=O)c2ccc(Br)cc2)cc1 | inactive: 1.69%
COc1ccc(C2CC(=O)c3cc(-c4nc(-c5cccc([N+](=O)[O-])c5)cs4)c(=O)n(-c4ccccc4N)c3C2)cc1 (configuration not stated) | inactive: 6.22%
CC(=O)c1ccc(NC(=O)C2CCN(S(=O)(=O)c3ccc4[nH]c5c(c4c3)CCCCC5)CC2)cc1 | inactive: 8.02%
Cc1ccccc1CNC(=O)Cn1c(=O)c2cccn2c2cccnc21 | inactive: 18.7%
COc1ccccc1CNC(=O)c1ccc(N2CCCC2)c(NC(=O)NCc2ccc(C)cc2)c1 | inactive: 5.49%
CCCOc1ccc(C2c3c(oc4ccccc4c3=O)C(=O)N2c2nnc(C(C)C)s2)cc1 (configuration not stated) | inactive: 4.91%
CCOC(=O)CNC(=O)N1CCN(S(=O)(=O)c2ccc3c(ccn3C)c2)CC1 | inactive: 2.51%
COc1ccc(CC(=O)N2CC(=O)Nc3ccc(F)cc3C2c2ccccc2)cc1 (configuration not stated) | inactive: 6.71%
Cc1ccc(-c2cn3nc(N4CCCC(C(=O)NCc5ccccc5F)C4)sc3n2)cc1 (configuration not stated) | inactive: 0.324%
Cc1ccc(Cn2nc3n(c2=O)-c2cc(Cl)ccc2OC3)cc1 | inactive: 3.06%
Cc1ccc(-c2csc(-c3c(N)c(C(=O)c4ccc5c(c4)OCO5)n4ccccc34)n2)cc1 | inactive: -15.6%
COc1ccc(C(=O)c2cn(CC(=O)Nc3cc(OC)cc(OC)c3)c3ccc(OC)cc3c2=O)cc1 | inactive: -3.36%
Cc1cccc(N(C)C(=O)Cn2c(=O)oc3cc(S(=O)(=O)N4CCCCC4)ccc32)c1 | inactive: -3.72%
COc1ccc(-c2nc3ccccc3o2)cc1NC(=O)Cc1ccc(Cl)cc1 | inactive: 0.203%

SMILES | activity change, negative = cytotoxicity
Cn1ccnc1SCC(=O)Nc1cccc(Br)c1 | inactive: 16%
CCOC(=O)c1c(S(=O)(=O)N2CCC(C(=O)NCc3cccc(OC)c3)CC2)c(C)n(C)c1C | inactive: 12.8%
Cc1c(Cl)cccc1NC(=O)C(=O)NCCc1csc(-c2ccc(C(F)(F)F)cc2)n1 | inactive: 2.83%
Cc1ccccc1Cn1c(CN2CCC(C(=O)NCc3ccc(Cl)cc3)CC2)cc2ccccc21 | inactive: 0.933%
CCCCN(C)C(=O)c1ccc2c(=O)n3nc(Nc4cc(C)ccc4C)sc3nc2c1 | inactive: -16.7%
O=S1(=O)c2ccccc2N(Cc2ccccc2F)c2ccccc21 | inactive: -0.82%
O=C(CNC(=O)c1ccc(F)cc1)OCc1cc(=O)n2ccsc2n1 | inactive: 16.7%
COc1ccc(C(=O)Nc2ccc3oc(-c4cccc5c(Br)cccc45)nc3c2)cc1 | inactive: -3.36%
Cc1cc(C)cc(NC(=O)COc2cccc3c(=O)n(C)ccc23)c1 | inactive: 1.62%
COc1ccc(CCNC(=O)c2ccc(-n3c(C)cc4c3CCC(C)C4)cc2)cc1OC (configuration not stated) | inactive: -2.65%
Cc1cc(C)c(OCC(=O)N(Cc2ccc(N(C)C)cc2)Cc2ccco2)c(C)c1 | inactive: -11.4%
O=C(NCc1ccc2c(c1)OCO2)c1ccc2c(c1)N(Cc1c(F)cccc1Cl)C(=O)c1ccccc1S2 | inactive: -2.98%
CCOC(=O)c1sc2ncn(CC(=O)Nc3ccc(OC)c(Cl)c3)c(=O)c2c1C | inactive: 0.881%
COc1ccc(-c2nc3sc(CCNC(=O)C(=O)Nc4ccc(OC)c(OC)c4)c(C)n3n2)cc1 | inactive: 4.27%
CC(C)CCNC(=O)Cn1nc(N2CCN(c3ccccc3)CC2)ccc1=O | inactive: 1.73%
COc1ccc(Br)cc1Cn1nnc(C(=O)Nc2cccc(SC)c2)c1N | inactive: -16.9%
Cc1ccccc1Cn1c2ccccc2c2cnn(CC(=O)NC3CCCCCC3)c(=O)c21 | inactive: -5.66%
O=C(CSc1nc2ccccc2n1Cc1cccc(F)c1)NCc1ccccc1 | inactive: 7.38%
CSc1cccc(NC(=O)c2cc3c(COC(C)=O)cnc(C)c3oc2=O)c1 | inactive: 9.06%
O=C(CC(c1cccs1)N1Cc2ccccc2C1=O)Nc1ccc(F)cc1 (configuration not stated) | inactive: -1%
